{
  "source": "PubChem BioAssay AID624296",
  "about": "(National Center for Advancing Translational Sciences (NCATS), 2012)",
  "note": "In all, about 350,000 compounds went through this assay and about 9,900 (2.8%) were called active. This list was built around the results that the source calls inconclusive (neither active nor inactive); the mix of calls is not that of the screen. Calls follow the shape of the dose curve; as a rule, active = well fitted activation curve with a large enough effect; inconclusive = small, poorly fitted or top-dose-only effect; inactive = no such curve, though single readings can be large or run the other way. No potency is given beside an inconclusive call; the fits are too rough. Potency is read from the fitted curve at half-maximal effect; tags tell the direction and shape of the fitted curve.",
  "data": [
    {"experiment": "A quantitative high throughput screen for small molecules that induce DNA re-replication in MCF 10a normal breast cells; also: nearly all actives have a fitted effect of over 50% in size; as to activity, positive = re-replication: % of control where 0% means no effect.", "details": "MCF 10A DNA re-replication, Hoechst nuclear intensity, 48 h; activity, positive = re-replication: at 46.1 µM (top of the series)", "values": [
      {"smiles": "COc1ccc(NC(=O)/C(C#N)=C/c2c(C)nn(-c3ccc(F)cc3)c2Cl)cc1Cl", "Potency": "inconclusive [activator, full curve, poor fit]"},
      {"smiles": "Cc1ccccc1NC(=O)COC(=O)COc1ccc2c(c1)CCC2", "Potency": "inconclusive [activator, partial curve, poor fit]"},
      {"smiles": "COc1cc(Cl)c(S(=O)(=O)NCCCn2ccnc2)cc1Cl", "Potency": "inconclusive [activator, partial curve, poor fit]"},
      {"smiles": "COCCNC(=O)c1cc2nc(-c3ccc(F)cc3)cc(C(F)(F)F)n2n1", "activity, positive = re-replication": "inactive: -15.2%"},
      {"smiles": "CC(C)(C)OC(=O)C[C@@H]1C/C=C\\C[C@@H](CC(=O)NCCO)C(=O)NCCOC1=O", "activity, positive = re-replication": "inactive: 0.175%"},
      {"smiles": "COc1ccccc1CCNC(=O)Cn1ccc2cc(S(=O)(=O)N3CCCC3)ccc21", "Potency": "inconclusive [activator, partial curve, poor fit]"},
      {"smiles": "Cc1noc2ncnc(Sc3ccc(Br)cc3)c12", "Potency": "active: 13 µM"},
      {"smiles": "CCOc1ccc(NC(=NCc2ccc3c(c2)OCO3)SC2CC(=O)N(c3ccc(OCC)cc3)C2=O)cc1", "note": "(centres undefined)", "Potency": "active: 20.6 µM"},
      {"smiles": "Cc1nc2sc(-c3ccccc3)cc2c(=O)[nH]1", "Potency": "active: 25.9 µM"},
      {"smiles": "CC(C)C[C@H]1CN=C(Nc2ccccc2)N1CCC(C)c1ccccc1", "note": "(some centres undefined)", "activity, positive = re-replication": "inactive: -38.4%"},
      {"smiles": "COc1cc2sc3cc(NCC[C@@H]4CCCN4C)ccc3c(=O)c2cc1OC", "Potency": "inconclusive [activator, single point]"},
      {"smiles": "CCCc1cc(C(=O)N2CCCC(N3CCN(c4ccccc4C)CC3)C2)n(C)n1", "note": "(centres undefined)", "Potency": "inconclusive [activator, partial curve, poor fit]"},
      {"smiles": "C=CCn1c(Cc2cccs2)nnc1SCC(=O)Nc1ccc(OC)c(OC)c1", "activity, positive = re-replication": "inactive: 0.024%"},
      {"smiles": "CCN1CCN(c2cc(C)c3cc(NC(=S)NCCCOC)ccc3n2)CC1", "Potency": "inconclusive [activator, partial curve, poor fit]"},
      {"smiles": "Clc1ccc(-c2csc(N/N=C/c3cccnc3)n2)c(Cl)c1", "Potency": "inconclusive [activator, single point]"},
      {"smiles": "O=C(Nc1cccnc1)c1cccc(NC(=O)c2ccco2)c1", "Potency": "inconclusive [activator, partial curve, poor fit]"},
      {"smiles": "CCC(=O)Nc1cccc(-c2nc3ccc(C)cc3o2)c1", "activity, positive = re-replication": "inactive: -0.0222%"},
      {"smiles": "CCn1ncc(Br)c1C(=O)Nc1ccc(C(=O)OC(C)C)cc1", "Potency": "inconclusive [activator, partial curve, poor fit]"},
      {"smiles": "COc1cccc(C(=O)NC(C)c2ccc(-c3ccccc3)cc2)c1OC", "note": "(centres undefined)", "Potency": "inconclusive [activator, single point]"},
      {"smiles": "C[C@@H](NC(=O)Cn1cnc2c(NCc3ccccc3)ncnc21)c1cccc2ccccc12", "Potency": "inconclusive [activator, single point]"},
      {"smiles": "COc1ccccc1N/C(=N/S(=O)(=O)c1ccc(Cl)cc1)c1ccccc1", "activity, positive = re-replication": "inactive: -1.54%"},
      {"smiles": "COc1ccc(-c2cnc(SCC(=O)Nc3cc(C)on3)n2Cc2ccco2)cc1", "activity, positive = re-replication": "inactive: 21.4%"},
      {"smiles": "Cc1[nH]c2ccccc2c1N=Nc1c(C)n(C)n(-c2ccccc2)c1=O", "activity, positive = re-replication": "inactive: 0.301%"},
      {"smiles": "O=C(CSc1nnc(CNC(=O)C23CC4CC(CC(C4)C2)C3)n1-c1ccccc1)Nc1ccc(F)cc1", "activity, positive = re-replication": "inactive: 20.9%"},
      {"smiles": "Cc1ccc(C(=O)N2CCN(c3ccccn3)CC2)cc1[N+](=O)[O-]", "activity, positive = re-replication": "inactive: 0.693%"},
      {"smiles": "COCCCNC(=O)c1ccc2c3c(onc13)-c1ccccc1C2=O", "Potency": "inconclusive [activator, single point]"},
      {"smiles": "O=C(CCS(=O)(=O)c1ccccc1)Nc1nc2cc3c(cc2s1)OCCO3", "Potency": "inconclusive [activator, single point]"},
      {"smiles": "N#C/C(=C\\c1cc(Cl)cc(Cl)c1O)C(=O)NC1CCCCC1", "Potency": "inconclusive [activator, partial curve, poor fit]"},
      {"smiles": "COc1cccc(NC(=O)CSc2nc3ccccc3c(=O)n2Cc2cccs2)c1", "activity, positive = re-replication": "inactive: 9.37%"},
      {"smiles": "O=c1[nH]c(/C=C/c2ccccc2F)nc2ccccc12", "Potency": "active: 8.2 µM"},
      {"smiles": "CCOc1ccc(NC(=S)NC(=O)/C=C/c2ccc(Br)cc2)c([N+](=O)[O-])c1", "Potency": "inconclusive [activator, single point]"},
      {"smiles": "NC(=O)/C(=C\\c1ccccc1)NC(=O)c1ccc(NC(=O)c2ccccc2)cc1", "Potency": "inconclusive [activator, single point]"},
      {"smiles": "COc1ccc(S(=O)(=O)CC(=O)c2cc(C)c(O)c(C)c2)cc1", "Potency": "inconclusive [activator, single point]"},
      {"smiles": "COC(=O)COC(=O)c1ccccc1NC(=O)c1ccccc1", "Potency": "inconclusive [activator, partial curve, poor fit]"},
      {"smiles": "CCOc1ccc2nc(SCC(=O)NC(=O)NCc3ccco3)sc2c1", "Potency": "inconclusive [activator, partial curve, poor fit]"},
      {"smiles": "Cc1cccc(NC(=S)NCc2ccco2)n1", "activity, positive = re-replication": "inactive: -9.36%"},
      {"smiles": "N#C/C(=N\\Nc1cccc(C(F)(F)F)c1)C(=O)c1ccsc1", "Potency": "inconclusive [activator, partial curve, poor fit]"},
      {"smiles": "Cc1cccn2c(=O)c(/C=C(\\C#N)C(=O)NC3CCS(=O)(=O)C3)c(N3CC(C)OC(C)C3)nc12", "note": "(centres undefined)", "Potency": "active: 1.84 µM"},
      {"smiles": "Cc1ccc(S(=O)(=O)NCc2nc3ccccc3c(=O)n2N)cc1", "Potency": "inconclusive [activator, full curve, poor fit]"},
      {"smiles": "O=C(O)c1ccc(N/N=C/c2cn(-c3ccccc3)nc2-c2cccs2)cc1", "Potency": "active: 23.1 µM"},
      {"smiles": "O=C(c1cccc(S(=O)(=O)N2CCCc3ccccc32)c1)N1CCN(c2ccccc2)CC1", "Potency": "inconclusive [activator, partial curve]"},
      {"smiles": "Cc1cc(C=C(C#N)C#N)c(C)n1-c1ccccc1", "Potency": "inconclusive [activator, single point]"},
      {"smiles": "C[C@@H]1NC(=O)N[C@@H]1CCCCCC(=O)O", "Potency": "inconclusive [activator, full curve, poor fit]"},
      {"smiles": "C=C1C(=O)O[C@H]2[C@H]1[C@@H](O)CC(=C)[C@@H]1CC(=O)[C@@H](C)[C@H]21", "Potency": "active: 11.6 µM"},
      {"smiles": "CC(=O)Nc1nc(-c2ccc(Cl)cc2)nc(C)c1C(C)=O", "Potency": "inconclusive [activator, single point]"},
      {"smiles": "CCN(CC)CCCNC(=O)C1c2ccccc2C(=O)N(CCOC)C1c1ccc(F)cc1", "note": "(centres undefined)", "activity, positive = re-replication": "inactive: -1.29%"},
      {"smiles": "Cc1nc(SCc2nc3cc(Cl)c(F)cc3[nH]2)c2oc3ccccc3c2n1", "Potency": "inconclusive [activator, partial curve, poor fit]"},
      {"smiles": "CCC(C)n1c(SCc2ccccc2)nc2ccsc2c1=O", "note": "(centres undefined)", "Potency": "inconclusive [activator, partial curve]"},
      {"smiles": "C=C(CN(C)C)C(=O)c1ccc2c(c1)OCO2", "Potency": "inconclusive [activator, single point]"},
      {"smiles": "O=C(O)c1ccc(N/N=C/c2cccc(F)c2)cc1", "Potency": "inconclusive [activator, partial curve, poor fit]"},
      {"smiles": "CCOc1ccc(N(CC(=O)Nc2ccccc2Cl)S(C)(=O)=O)cc1", "Potency": "inconclusive [activator, single point]"},
      {"smiles": "CCOc1ccccc1NC(=O)CN1CCCCCC1", "activity, positive = re-replication": "inactive: -0.358%"},
      {"smiles": "Cc1cc(C)c(N=Cc2c(O)c3ccccc3oc2=O)c(C)c1", "Potency": "inconclusive [activator, single point]"},
      {"smiles": "CCCOc1ncnc2c1[nH]c1ccccc12", "Potency": "inconclusive [activator, partial curve, poor fit]"},
      {"smiles": "Cc1cc(-c2cc(-c3ccccc3)on2)nc(NC2CCCC2)n1", "Potency": "inconclusive [activator, partial curve, poor fit]"},
      {"smiles": "COc1ccc2c(C)cc(SCC(=O)Nc3ccc(Cl)cn3)nc2c1", "Potency": "inconclusive [activator, single point]"},
      {"smiles": "CC(C)c1ccc(NC(=O)CN2C(=O)NC(Cc3c[nH]c4ccccc34)C2=O)cc1", "note": "(centres undefined)", "Potency": "inconclusive [activator, single point]"},
      {"smiles": "O=[N+]([O-])c1cccc(COc2cccc(CN3CCCC3)c2)c1", "activity, positive = re-replication": "inactive: -9.98%"},
      {"smiles": "O=C(Nc1ccc(OC(F)(F)F)cc1)Nc1cccc([N+](=O)[O-])c1", "Potency": "active: 11.6 µM"},
      {"smiles": "Cc1cccc(Nc2nc(N)c([N+](=O)[O-])c(N3CCCC(C)C3)n2)c1", "note": "(centres undefined)", "Potency": "inconclusive [activator, single point]"},
      {"smiles": "CCN(CC(=O)Nc1ccc(NC(C)=O)cc1)C(=O)/C=C/c1cn(-c2ccccc2)nc1-c1cccs1", "Potency": "inconclusive [activator, single point]"},
      {"smiles": "Cc1ccc(Nc2nc(Cl)c(C=O)s2)cc1Cl", "Potency": "active: 18.4 µM"},
      {"smiles": "CCc1ccc(/C=C/C(=O)c2c(C)cc(C)[nH]c2=O)cc1", "Potency": "active: 18.4 µM"},
      {"smiles": "O=C(Nc1nnc(SCc2ccccc2F)s1)C1=COCCO1", "activity, positive = re-replication": "inactive: 0.57%"},
      {"smiles": "COCc1ccc(CN2CCCC(CO)(Cc3cccc(OC)c3)C2)o1", "note": "(centres undefined)", "Potency": "inconclusive [activator, full curve, poor fit]"},
      {"smiles": "COCC(C)N1CC(O)=C(c2nc(-c3ccc(Cl)cc3)cs2)C1=N", "note": "(centres undefined)", "Potency": "inconclusive [activator, single point]"},
      {"smiles": "COc1ccc(NC(=O)c2nc(S(=O)(=O)Cc3cccc(C)c3)ncc2Cl)c(OC)c1", "Potency": "inconclusive [activator, partial curve, poor fit]"},
      {"smiles": "COc1cccc2cc(C(=O)NCc3ccccc3)c(=N)oc12", "Potency": "inconclusive [activator, partial curve, poor fit]"},
      {"smiles": "CN1C(C)(C)CC(NC(=O)c2ccco2)CC1(C)C", "activity, positive = re-replication": "inactive: -1.23%"}
    ]}
  ]
}
